In patent US10064873B2, “Compounds and compositions for treating HIV with derivatives of Betulin” (GlaxoSmithKline LLC, priority 2011, dated 2018):
pIC50: −log10 of the molar value. Read-outs that look alike come from different tables or passages of the source.

Tested on: HIV (infection of HOS cells by the J4HxB2 cell line)
Assay: microbe, parasite or virus in culture
Format: cell-based
Settings: Human immunodeficiency virus 1, HOS; for IC50: read-out: LHIV IC50 (nM) with 40% HuS, 40% human serum
[1] = no human serum, read-out: LHIV IC50

Row | Structure (SMILES) | IC50 | pIC50 [1] | pIC50 (read-out: IC50 with 40% human serum, LHIV assay)
1 | C=C(C)[C@@H]1CC[C@]2(C(=O)O)CC[C@]3(C)[C@H](CC[C@@H]4[C@@]5(C)CC[C@H](OC(=O)CC(C)(C)C(=O)O)C(C)(C)[C@@H]5CC[C@]43C)[C@@H]12 [Bevirimat] | 6600 nM | 7.38 | –
2 | CC(C)C1=C2[C@H]3CC[C@@H]4[C@@]5(C)CC[C@H](OC(=O)CC(C)(C)C(=O)O)C(C)(C)[C@@H]5CC[C@@]4(C)[C@]3(C)CC[C@@]2([C@@H](O)CN(CCN(C)C)Cc2ccc(Cl)cc2)CC1=O [Compound 51, 4-(((3aR,5aR,5bR,7aR,9S,11aR,11bR,13aS)-3a-((R)-2-((4-Chlorobenzyl)(2-(dimethylamino)ethyl)amino)-1-hydroxyethyl)-1-isopropyl-5a,5b,8,8,11a-pentamethyl-2-oxo-3,3a,4,5,5a,5b,6,7,7a,8,9,10,11,11a,11b,12,13,13a-octadecahydro-2H-cyclopenta[a]chrysen-9-yl)oxy)-2,2-dimethyl-4-oxobutanoic acid] | – | – | 7.97
3 | CC(C)C1=C2[C@H]3CC[C@@H]4[C@@]5(C)CC[C@H](OC(=O)CC(C)(C)C(=O)O)C(C)(C)[C@@H]5CC[C@@]4(C)[C@]3(C)CC[C@@]2([C@@H](O)CN(CCN(C)C)Cc2ccc(Cl)cc2)CC1=O [Compound 51, 4-(((3aR,5aR,5bR,7aR,9S,11aR,11bR,13aS)-3a-((R)-2-((4-chlorobenzyl)(2-(dimethylamino)ethyl)amino)-1-hydroxyethyl)-1-isopropyl-5a,5b,8,8,11a-pentamethyl-2-oxo-3,3a,4,5,5a,5b,6,7,7a,8,9,10,11,11a,11b,12,13,13a-octadecahydro-2H-cyclopenta[a]chrysen-9-yl)oxy)-2,2-dimethyl-4-oxobutanoic acid] | 10.6 nM | 8.72 | –
